# Experimental data: PubChem BioAssay (Tox21)
# The shares of active, inactive and inconclusive entries below differ from those in the screen. For some assays here: A potency beside an inconclusive call is a rough fit, not a confirmed value. Active and inactive are the calls of the source. Unless noted, calls come from the whole dose curve; as a rule, active = well fitted curve in the direction sought with a large enough effect in the repeat runs; inconclusive = weak or mixed curves; inactive = no such curve, though single readings can be large; an effect the other way counts as inactive or inconclusive.
# Legend:
# [1] = target: Peroxisome proliferator-activated receptor gamma (Homo sapiens) (UniProt P37231); assay: qHTS assay to identify small molecule antagonists of the peroxisome proliferator-activated receptor gamma (PPARg) signaling pathway (AID 743191; calls by dose curve; note: nearly all actives have a fitted effect of over 30% in size; note: potency is the fitted concentration of half-maximal effect); conditions: HEK293H PPARg-UAS-bla, beta-lactamase ratio, antagonist, 17 h; ratio activity, negative = inhibition: at 62.6 µM (top of the series) unless noted
# Outline: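 Beta-lactamase reporter under UAS control in HEK293H PPARg-bla cells; compound treatment 17 h at 37C. Read-out: fluorescence intensity after 1 h room-temperature incubation with LiveBLAzer B/G FRET substrate.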
# [2] = qHTS assay for small molecule agonists of the antioxidant response element (ARE) signaling pathway (AID 743202; active = well fitted activation curve with a large enough effect in the signal ratio in the repeat runs, not every such curve was filed as active; inconclusive = weak or mixed curves, or effect the other way; inactive = no such curve, though single readings can be large or run the other way; the % refers to the signal ratio; note: potency is the fitted concentration of half-maximal effect); conditions: HepG2 ARE-bla reporter, beta-lactamase FRET, 16 h; activation: at 73.3 µM (top of the series) unless noted
# Outline: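 After 16 hours of compound treatment at 37 C, HepG2 cells with a stably integrated ARE-driven beta-lactamase reporter were loaded 2 hours at room temperature with LiveBLAzer B/G FRET substrate and fluorescence intensity measured.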
# [3] = target: Vitamin D3 receptor (Homo sapiens) (UniProt P11473); assay: qHTS assay to identify small molecule antagonists of the vitamin D receptor (VDR) signaling pathway (AID 743223; active = well fitted inhibition curve with a large enough effect in the signal ratio in the repeat runs, not every such curve was filed as active; inconclusive = weak or mixed curves, or effect the other way; inactive = no such curve, though single readings can be large or run the other way; the % refers to the signal ratio; note: % is set by controls: 0 for no effect and ±100 for the full control effect); conditions: VDR-UAS-bla HEK293T, beta-lactamase FRET ratio, 16 h; activity change, negative = inhibition: at 61 µM (top of the series) unless noted
# Outline: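 Fluorescence from LiveBLAzer B/G FRET substrate, read after 2 h at room temperature, reflects beta-lactamase reporter activity in VDR-bla cells treated 16 h at 37C with compounds and agonist 1alpha,25-dihydroxyvitamin D3 (3 nM final).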
# [4] = target: Cytochrome P450 2C19 (Homo sapiens) (UniProt P33261); assay: Cytochrome P450 Family 2 Subfamily C Member 19 (CYP2C19) small molecule antagonists: luciferase reporter qHTS assay (AID 1671197); note: nearly all actives have a fitted effect of over 65% in size; note: potency is the fitted concentration of half-maximal effect
# Outline: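 Compounds were tested on CYP2C19 activity via proluciferin conversion to luciferin. The 37C, 1 h reaction followed NADPH addition; detection reagent stopped it.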
# [5] = target: Cytochrome P450 2C9 (Homo sapiens) (UniProt P11712); assay: Cytochrome P450 Family 2 Subfamily C Member 9 (CYP2C9) small molecule antagonists: luciferase reporter qHTS assay (AID 1671198); note: % is set by controls: 0 for no effect and ±100 for the full control effect; nearly all actives have a fitted effect of over 50% in size
# Outline: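 Enzyme-substrate mix preincubated with compound 10 min at room temperature; reaction started with NADPH regeneration solution, 1 h 37C. Luminescent luciferin product read after 20 min detection reagent.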
# [6] = qHTS assay to identify small molecule antagonists of the sonic hedgehog signaling (Shh) pathway (AID 1259369; calls by dose curve; note: nearly all actives have a fitted effect of over 45% in size; note: potency is the fitted concentration of half-maximal effect)
# Outline: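 Gli1 transcriptional reporter (firefly Luc) in NIH/3T3 background, conditioned-medium activated. 24hr exposure, luminescence endpoint.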
# [7] = qHTS assay to identify small molecule agonists of the estrogen receptor beta (ER-beta) signaling pathway - cell viability counter screen (AID 1259380); note: potency is the fitted concentration of half-maximal effect; nearly all actives have a fitted effect of over 30% in size
# Outline: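 In this qHTS counter screen, HEK293T cells carrying an ER-beta/UAS beta-lactamase reporter, grown in 2% charcoal-stripped FBS, received compound for 16 hr; ATP-based CellTiter-Glo luminescence was then read after 30 min at room temperature.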
# [8] = target: Progesterone receptor (Homo sapiens) (UniProt P06401); assay: qHTS assay to identify small molecule antagonists of the progesterone receptor (PR) signaling pathway (AID 1346795; active = well fitted inhibition curve with a large enough effect in the signal ratio in the repeat runs, not every such curve was filed as active; inconclusive = weak or mixed curves; the % refers to the signal ratio; note: % is set by controls: 0 for no effect and ±100 for the full control effect); conditions: PR-UAS-bla HEK293T, beta-lactamase FRET ratio, 16 h; activity change, negative = inhibition: at 92.4 µM (top of the series) unless noted
# Outline: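 HEK293T PR-UAS-bla reporter cells in charcoal-stripped serum (2%) received compound after a 6 hr settling period, followed by R5020 agonist at 1 nM final; 16 hr incubation preceded the FRET substrate step and fluorescence measurement.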
# [9] = qHTS assay to identify small molecule agonists of the progesterone receptor (PR) signaling pathway - cell viability counter screen (AID 1346799; calls by dose curve; note: nearly all actives have a fitted effect of over 45% in size; note: potency is the fitted concentration of half-maximal effect)
# Outline: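 Counter screen for cytotoxicity: compound-treated PR-UAS-bla HEK293T cells (16 hr, 37C, 5% CO2) were assayed with CellTiter-Glo, luminescence measured after 30 min at room temperature.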
# [10] = qHTS assay for small molecule agonists of the p53 signaling pathway (AID 651631; calls by dose curve; note: % is set by controls: 0 for no effect and ±100 for the full control effect; nearly all actives have a fitted effect of over 15% in size); conditions: HCT-116 p53RE-bla reporter, beta-lactamase FRET ratio, 16 h; activation: at 73.3 µM (top of the series) unless noted
# Outline: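 HCT-116 p53RE-bla reporter line, 16 h compound treatment at 37 °C, then fluorescence after 2 h with B/G FRET substrate.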
# [11] = qHTS assay for small molecule disruptors of the mitochondrial membrane potential (AID 720635); conditions: HepG2 mitochondrial membrane potential, Mito-MPS dye ratio; ratio activity, negative = MMP loss: at 83.2 µM (top of the series) unless noted; note: potency is the fitted concentration of half-maximal effect
# Outline: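 Mitochondrial membrane potential tracked with Mito-MPS dye, red aggregates (ex 540/em 590 nm) against green monomers (ex 490/em 535 nm). Compound treatment 1 hr at 37C, dye 30 min in HepG2.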
# [12] = qHTS assay for identifying genotoxic compounds that show differential cytotoxicity against isogenic chicken DT40 cell lines with known DNA damage response pathways - Rev3 mutant cell line (AID 743014); conditions: chicken DT40 Rev3-/- viability, CellTiter-Glo, 40 h; activity, negative = cytotoxicity: at 68.4 µM (top of the series) unless noted; note: nearly all actives have a fitted effect of over 55% in size; note: potency is the fitted concentration of half-maximal effect
# [13] = qHTS assay to identify small molecule antagonists of the peroxisome proliferator-activated receptor delta (PPARd) signaling pathway - cell viability counter screen (AID 743213); conditions: PPARd-bla HEK293H viability, CellTiter-Glo luminescence, 17 h; viability change, negative = cytotoxic: at 62 µM (top of the series) unless noted; note: nearly all actives have a fitted effect of over 50% in size; note: potency is the fitted concentration of half-maximal effect
# Outline: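 Same-well viability: cells pre-incubated 5 h, dosed with compound plus 300 nM L165041, kept 17 h at 37 C, FRET substrate 2 h RT, then CellTiter-Glo 30 min RT and luminescence.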
# [14] = target: Cytochrome P450 1A2 (Homo sapiens) (UniProt P05177); assay: Cytochrome P450 Family 1 Subfamily A Member 2 (CYP1A2) small molecule antagonists: luciferase reporter qHTS assay (AID 1671199); note: potency is the fitted concentration of half-maximal effect; nearly all actives have a fitted effect of over 50% in size
# Outline: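 Quantitative high-throughput format using the P450-Glo CYP1A2 system. Reaction initiated by NADPH regeneration solution, 1 h at room temperature, then stopped with detection reagent; luminescence measured 20 min later.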
# [15] = qHTS assay to identify small molecule antagonists of the thyroid receptor (TR) signaling pathway - cell viability counter screen (AID 743064); conditions: GH3.TRE-Luc viability, CellTiter-Fluor, 24 h; activity change, negative = cytotoxic: at 70.3 µM (top of the series) unless noted; note: nearly all actives have a fitted effect of over 50% in size; note: potency is the fitted concentration of half-maximal effect
# Outline: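 Plate GH3.TRE-Luc cells; incubate 4 h at 37 °C; add compound, then T3 to 1 nM final; incubate 23.5 h; add CellTiter-Fluor; incubate 30 min at 37 °C, 5% CO2; read fluorescence.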
# [16] = target: Estrogen receptor beta (Homo sapiens) (UniProt Q92731); assay: qHTS assay to identify small molecule antagonists of the estrogen receptor beta (ER-beta) signaling pathway (AID 1259378; active = well fitted inhibition curve with a large enough effect in the signal ratio in the repeat runs, not every such curve was filed as active; inconclusive = weak or mixed curves, or effect the other way; inactive = no such curve, though single readings can be large or run the other way; the % refers to the signal ratio; note: % is set by controls: 0 for no effect and ±100 for the full control effect); conditions: ER-beta-UAS-bla HEK293T, beta-lactamase FRET ratio, 16 h; activity, negative = inhibition: at 92.4 µM (top of the series) unless noted
# Outline: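 Antagonist mode: compounds added to beta-lactamase reporter HEK293T ER-beta-UAS cells stimulated with E2 (1nM final), 16 hr at 37C. LiveBLAzer B/G FRET substrate, 2 hours room temperature, fluorescence read-out.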
# [17] = target: Cytochrome P450 2D6 (Homo sapiens) (UniProt P10635); assay: Cytochrome P450 Family 2 Subfamily D Member 6 (CYP2D6) small molecule antagonists: luciferase reporter qHTS assay (AID 1671196); note: nearly all actives have a fitted effect of over 50% in size; note: potency is the fitted concentration of half-maximal effect
# Outline: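 Quantitative HTS of Tox21 chemicals against CYP2D6 using a luminescent proluciferin substrate. After NADPH addition, 1 h room-temperature reaction; luminescence recorded 20 min post detection reagent.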
# [18] = target: Glucocorticoid receptor (Homo sapiens) (UniProt P04150); assay: qHTS assay to identify small molecule antagonists of the glucocorticoid receptor (GR) signaling pathway (AID 720692; active = well fitted inhibition curve with a large enough effect in the signal ratio in the repeat runs, not every such curve was filed as active; inconclusive = weak or mixed curves, or effect the other way; inactive = no such curve, though single readings can be large or run the other way; the % refers to the signal ratio; note: % is set by controls: 0 for no effect and ±100 for the full control effect); conditions: GR-bla HeLa, beta-lactamase FRET ratio, dexamethasone-stimulated, 18 h; activity change, negative = inhibition: at 58.5 µM (top of the series) unless noted
# Outline: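 GRE-bla HeLa line, dex-stimulated (5 nM final). Compound exposure 18 h, 37 C. Beta-lactamase FRET read after 2 h RT substrate.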
# [19] = qHTS assay for identifying genotoxic compounds that show differential cytotoxicity against isogenic chicken DT40 cell lines with known DNA damage response pathways - wild type cell line (AID 743012); conditions: DT40 wild type chicken cells viability, CellTiter-Glo, 40 h; activity change, negative = cytotoxicity: at 68.4 µM (top of the series) unless noted; note: potency is the fitted concentration of half-maximal effect; nearly all actives have a fitted effect of over 60% in size
# Outline: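 300 wt DT40 cells/well; cpd (DMSO) pintool-transferred after ~0.5 h at 37 C/5% CO2; 40 h incubation; CellTiter-Glo added, 30 min RT; luminescence read.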
# Tags give direction and shape of the fitted curve or compound fluorescence and quenching.
# Sequence of UniProt Q92731 (Q92731 whole entry, looked up): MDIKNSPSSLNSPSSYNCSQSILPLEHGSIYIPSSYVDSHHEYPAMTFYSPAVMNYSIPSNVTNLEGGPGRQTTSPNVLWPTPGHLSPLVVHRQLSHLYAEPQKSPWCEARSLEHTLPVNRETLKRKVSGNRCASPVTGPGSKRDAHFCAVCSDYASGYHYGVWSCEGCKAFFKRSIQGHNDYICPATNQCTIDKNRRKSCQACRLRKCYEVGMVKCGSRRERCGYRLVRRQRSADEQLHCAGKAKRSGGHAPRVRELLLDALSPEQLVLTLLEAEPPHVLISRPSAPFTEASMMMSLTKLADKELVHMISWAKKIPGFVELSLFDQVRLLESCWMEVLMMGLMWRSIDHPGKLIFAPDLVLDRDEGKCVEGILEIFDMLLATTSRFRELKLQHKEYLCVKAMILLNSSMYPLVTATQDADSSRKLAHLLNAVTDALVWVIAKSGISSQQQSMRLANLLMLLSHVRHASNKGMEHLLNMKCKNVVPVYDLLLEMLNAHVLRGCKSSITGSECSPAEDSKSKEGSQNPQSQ
# Sequence of UniProt P05177 (P05177 whole entry, looked up): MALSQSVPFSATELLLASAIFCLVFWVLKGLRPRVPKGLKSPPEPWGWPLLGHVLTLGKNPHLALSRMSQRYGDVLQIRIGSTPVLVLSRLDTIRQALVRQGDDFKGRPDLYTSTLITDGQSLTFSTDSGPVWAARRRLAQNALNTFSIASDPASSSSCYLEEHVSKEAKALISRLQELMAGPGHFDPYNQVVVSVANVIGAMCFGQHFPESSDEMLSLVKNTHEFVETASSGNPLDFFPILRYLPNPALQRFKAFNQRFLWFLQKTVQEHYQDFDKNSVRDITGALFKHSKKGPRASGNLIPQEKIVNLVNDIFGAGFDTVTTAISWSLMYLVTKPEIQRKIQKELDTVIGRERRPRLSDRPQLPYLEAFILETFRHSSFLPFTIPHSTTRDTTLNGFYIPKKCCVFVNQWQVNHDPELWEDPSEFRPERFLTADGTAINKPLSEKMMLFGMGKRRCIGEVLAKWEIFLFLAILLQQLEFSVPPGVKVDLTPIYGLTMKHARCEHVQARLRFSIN
# Sequence of UniProt P11712 (P11712 whole entry, looked up): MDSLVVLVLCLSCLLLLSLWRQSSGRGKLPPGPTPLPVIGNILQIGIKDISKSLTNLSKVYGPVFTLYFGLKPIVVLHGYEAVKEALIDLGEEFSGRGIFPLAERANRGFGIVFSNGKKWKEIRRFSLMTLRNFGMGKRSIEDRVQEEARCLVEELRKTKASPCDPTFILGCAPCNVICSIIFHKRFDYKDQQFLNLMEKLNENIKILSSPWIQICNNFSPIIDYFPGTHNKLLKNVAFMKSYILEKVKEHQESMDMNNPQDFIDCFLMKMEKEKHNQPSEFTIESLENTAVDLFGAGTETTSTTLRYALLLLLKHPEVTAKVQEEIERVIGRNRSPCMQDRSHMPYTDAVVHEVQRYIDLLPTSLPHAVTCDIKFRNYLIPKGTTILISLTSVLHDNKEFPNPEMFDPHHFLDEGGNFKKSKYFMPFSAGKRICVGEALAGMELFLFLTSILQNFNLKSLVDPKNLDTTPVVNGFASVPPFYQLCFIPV
# Sequence of UniProt P33261 (P33261 whole entry, looked up): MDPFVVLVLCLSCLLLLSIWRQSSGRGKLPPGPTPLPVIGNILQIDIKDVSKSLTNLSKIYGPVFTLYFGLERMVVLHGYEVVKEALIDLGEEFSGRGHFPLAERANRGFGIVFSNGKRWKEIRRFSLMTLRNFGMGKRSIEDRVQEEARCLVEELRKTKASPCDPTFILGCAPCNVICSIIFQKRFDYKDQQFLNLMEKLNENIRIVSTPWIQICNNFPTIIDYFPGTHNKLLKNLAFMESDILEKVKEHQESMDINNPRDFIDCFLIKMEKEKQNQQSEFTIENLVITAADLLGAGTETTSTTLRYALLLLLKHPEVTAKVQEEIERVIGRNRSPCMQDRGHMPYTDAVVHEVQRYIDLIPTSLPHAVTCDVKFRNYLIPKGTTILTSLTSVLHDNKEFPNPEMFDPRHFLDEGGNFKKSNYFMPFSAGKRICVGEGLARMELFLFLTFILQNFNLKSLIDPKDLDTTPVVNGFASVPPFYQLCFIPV
# Sequence of UniProt P11473 (P11473 whole entry, looked up): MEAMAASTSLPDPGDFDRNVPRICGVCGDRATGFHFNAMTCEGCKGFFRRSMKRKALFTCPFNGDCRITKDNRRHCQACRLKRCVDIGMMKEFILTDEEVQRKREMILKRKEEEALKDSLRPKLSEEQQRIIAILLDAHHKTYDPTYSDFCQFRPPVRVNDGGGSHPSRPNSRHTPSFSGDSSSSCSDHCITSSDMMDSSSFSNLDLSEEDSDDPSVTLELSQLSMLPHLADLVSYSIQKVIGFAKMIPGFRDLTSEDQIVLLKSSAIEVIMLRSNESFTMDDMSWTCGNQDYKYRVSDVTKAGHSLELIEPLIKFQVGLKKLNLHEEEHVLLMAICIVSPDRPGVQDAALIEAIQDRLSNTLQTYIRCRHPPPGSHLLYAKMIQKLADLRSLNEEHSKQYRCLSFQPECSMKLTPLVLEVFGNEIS
# Sequence of UniProt P06401 (P06401 whole entry, looked up): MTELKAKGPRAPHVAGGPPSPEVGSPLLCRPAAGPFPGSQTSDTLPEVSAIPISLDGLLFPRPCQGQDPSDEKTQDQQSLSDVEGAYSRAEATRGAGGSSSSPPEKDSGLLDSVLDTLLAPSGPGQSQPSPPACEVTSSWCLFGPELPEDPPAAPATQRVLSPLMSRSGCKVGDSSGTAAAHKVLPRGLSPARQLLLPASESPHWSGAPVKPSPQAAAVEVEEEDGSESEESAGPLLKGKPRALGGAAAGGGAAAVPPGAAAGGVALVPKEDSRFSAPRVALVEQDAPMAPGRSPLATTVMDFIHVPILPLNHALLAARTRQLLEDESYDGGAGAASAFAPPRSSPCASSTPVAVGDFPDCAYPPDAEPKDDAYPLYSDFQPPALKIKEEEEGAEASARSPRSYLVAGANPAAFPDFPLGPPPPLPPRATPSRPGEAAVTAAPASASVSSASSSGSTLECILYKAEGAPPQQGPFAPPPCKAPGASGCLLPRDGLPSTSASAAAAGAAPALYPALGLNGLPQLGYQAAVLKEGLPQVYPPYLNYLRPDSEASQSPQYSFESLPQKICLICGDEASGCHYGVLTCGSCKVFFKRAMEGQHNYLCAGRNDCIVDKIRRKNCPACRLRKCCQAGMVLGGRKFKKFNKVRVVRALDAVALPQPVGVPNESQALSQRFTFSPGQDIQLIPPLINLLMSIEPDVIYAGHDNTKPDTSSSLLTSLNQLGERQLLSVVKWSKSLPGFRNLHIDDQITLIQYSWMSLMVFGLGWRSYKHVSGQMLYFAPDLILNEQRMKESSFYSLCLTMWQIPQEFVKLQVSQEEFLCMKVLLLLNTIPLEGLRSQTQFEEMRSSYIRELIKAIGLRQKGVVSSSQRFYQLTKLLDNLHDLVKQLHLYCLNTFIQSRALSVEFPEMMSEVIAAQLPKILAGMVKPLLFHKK
# Sequence of UniProt P37231 (P37231 whole entry, looked up): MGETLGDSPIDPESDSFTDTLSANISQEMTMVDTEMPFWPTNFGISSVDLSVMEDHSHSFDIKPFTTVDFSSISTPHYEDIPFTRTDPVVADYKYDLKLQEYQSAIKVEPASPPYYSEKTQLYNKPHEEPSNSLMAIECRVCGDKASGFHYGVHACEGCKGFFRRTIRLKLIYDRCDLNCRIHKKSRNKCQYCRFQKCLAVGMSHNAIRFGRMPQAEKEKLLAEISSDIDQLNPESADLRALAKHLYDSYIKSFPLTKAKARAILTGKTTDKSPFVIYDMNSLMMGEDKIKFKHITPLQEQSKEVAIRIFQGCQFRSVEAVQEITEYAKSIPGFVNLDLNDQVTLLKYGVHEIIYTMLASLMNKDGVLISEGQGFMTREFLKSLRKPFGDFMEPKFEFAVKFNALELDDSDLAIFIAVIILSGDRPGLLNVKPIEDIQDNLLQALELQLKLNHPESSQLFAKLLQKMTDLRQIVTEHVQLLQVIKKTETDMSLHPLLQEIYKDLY
# Sequence of UniProt P10635 (P10635 whole entry, looked up): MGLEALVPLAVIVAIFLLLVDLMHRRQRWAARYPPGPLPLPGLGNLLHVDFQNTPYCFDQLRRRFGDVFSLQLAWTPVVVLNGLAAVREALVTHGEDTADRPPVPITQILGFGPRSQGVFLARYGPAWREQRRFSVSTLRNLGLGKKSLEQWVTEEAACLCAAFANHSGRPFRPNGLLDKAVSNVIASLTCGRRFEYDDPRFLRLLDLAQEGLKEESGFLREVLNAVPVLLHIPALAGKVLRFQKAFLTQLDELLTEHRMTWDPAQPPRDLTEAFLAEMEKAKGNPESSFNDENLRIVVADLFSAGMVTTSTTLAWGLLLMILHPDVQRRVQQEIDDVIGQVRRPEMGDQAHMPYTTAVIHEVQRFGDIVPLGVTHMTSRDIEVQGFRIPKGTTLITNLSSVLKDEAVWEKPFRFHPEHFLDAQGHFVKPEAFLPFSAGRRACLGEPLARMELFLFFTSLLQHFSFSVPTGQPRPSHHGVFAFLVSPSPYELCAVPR
smiles,measurement,setting,value
CC(=O)c1ccc(O)c(C(N)=O)c1,Potency,[1],inactive
same,Potency,[2],inactive
same,"activity change, negative = inhibition",[3],inconclusive: 4.83%
same,Potency,[4],inactive
same,Potency,[5],inactive
Cc1onc(-c2c(Cl)cccc2Cl)c1C(=O)Cl,Potency,[1],"inconclusive: 33.5 µM [activator, single point]"
same,"activity change, negative = inhibition",[3],inconclusive: -13.6%
same,Potency,[6],inactive
same,Potency,[7],"inconclusive: 3.35 µM [cytotoxic, single point]"
same,Potency,[8],inactive
same,Potency,[9],inactive
CCCCc1nc(Cl)c(CO)n1Cc1ccc(-c2ccccc2-c2nn[nH]n2)cc1,activation,[10],inconclusive: 7.52%
same,Potency,[11],"inconclusive: 5.96 µM [rising, full curve, poor fit]"
same,activation,[2],inconclusive: 2.54%
Cc1ccc(C(=O)O)cc1[N+](=O)[O-],Potency,[11],inactive
same,Potency,[12],inactive
same,"ratio activity, negative = inhibition",[1],inconclusive: 13.5%
same,Potency,[13],"inconclusive: 2.16 µM [cytotoxic, single point]"
same,"activity change, negative = inhibition",[3],inconclusive: 13.9%
same,Potency,[14],"inconclusive: 62.4 µM [inhibitor, partial curve]"
O=C(O)CCSCCC(=O)O,Potency,[10],inactive
same,Potency,[11],inactive
same,Potency,[15],"inconclusive: 19.3 µM [rising, partial curve, poor fit]"
same,Potency,[1],inactive
same,Potency,[5],inactive
O=C(OCCN1CCOCC1)c1cccnc1Nc1cccc(C(F)(F)F)c1,Potency,[1],inactive
same,Potency,[2],active: 26.6 µM
same,Potency,[6],inactive
same,"activity, negative = inhibition",[16],inconclusive: -31.7% [at 42.5 µM]
same,Potency,[7],"inconclusive: 13.3 µM [cytotoxic, full curve]"
same,"activity change, negative = inhibition",[8],inconclusive: -32.8% [at 42.5 µM]
same,Potency,[9],inactive
same,Potency,[4],"inconclusive: 43.6 µM [inhibitor, single point]"
NC(CS)C(=O)O (centres undefined),Potency,[10],inactive
same,activation,[2],inconclusive: -1.91%
same,Potency,[13],"inconclusive: 0.0038 µM [rising, full curve, poor fit]"
same,"activity change, negative = inhibition",[3],inconclusive: 3.97%
same,Potency,[6],"inconclusive: 0.106 µM [inhibitor, single point]"
same,Potency,[8],inactive
same,Potency,[17],inactive
CCOc1ccc(NC(=O)OC(C)C)cc1OCC,Potency,[18],inactive
same,Potency,[19],"inconclusive: 68.6 µM [cytotoxic, single point]"
same,Potency,[12],active: 61.1 µM
same,Potency,[15],inactive
same,Potency,[9],"inconclusive: 54.5 µM [cytotoxic, partial curve]"
same,Potency,[4],active: 71 µM
CCC(=O)OC/C=C(\C)CCC=C(C)C,"activity, negative = inhibition",[16],inconclusive: -35.1%
same,Potency,[9],inactive
same,Potency,[4],"inconclusive: 89.4 µM [inhibitor, single point]"
same,Potency,[14],"inconclusive: 63.3 µM [inhibitor, partial curve]"
CCCCCCCCCCCCCCCCN(C)C,Potency,[12],"inconclusive: 2.74 µM [cytotoxic, partial curve, poor fit]"
same,"activity, negative = inhibition",[16],inactive: 3.25% [at 8.39 µM]
same,"activity change, negative = inhibition",[4],inactive: -5.94% [at 10.5 µM]
NC(=O)N1c2ccccc2CC(=O)c2ccccc21,Potency,[11],inactive
same,Potency,[15],active: 13.3 µM
same,"activity change, negative = inhibition",[3],inconclusive: -6.69%
same,Potency,[6],"inconclusive: 33.5 µM [inhibitor, single point]"
same,Potency,[17],inconclusive: 30.9 µM [inhibitor]
same,Potency,[4],"inconclusive: 43.6 µM [inhibitor, single point]"
O=C=NCc1cccc(CN=C=O)c1,Potency,[4],"inconclusive: 19 µM [inhibitor, single point]"
Cc1ccccc1C(N)=O,Potency,[12],"inconclusive: 30.6 µM [cytotoxic, partial curve, poor fit]"
same,"ratio activity, negative = inhibition",[1],inconclusive: 3.12%
same,Potency,[6],inactive
same,Potency,[4],"inconclusive: 79.6 µM [inhibitor, partial curve, poor fit]"
same,Potency,[14],"inconclusive: 63.2 µM [inhibitor, partial curve]"
COc1ccc(Cc2cnc(N)nc2N)cc1OC,"activity change, negative = inhibition",[18],inconclusive: -2.82%
same,Potency,[19],"inconclusive: 29.8 µM [cytotoxic, single point]"
same,Potency,[12],inconclusive: 33.5 µM [cytotoxic]
same,Potency,[15],inactive
same,"ratio activity, negative = inhibition",[1],inconclusive: 25.3%
same,"viability change, negative = cytotoxic",[13],inconclusive: -21.7% [cytotoxic]
same,Potency,[16],inactive
same,Potency,[9],inactive
same,Potency,[5],inactive
